# Among all 310,000 compounds or so, about 14,000 (4.5%) showed an effect of 50% or more. Effects have a minus sign here. Some of the results follow.
# Target: human ether-à-go-go-related gene (hERG) potassium channel (human, UniProt Q12809)
# Test: primary screen, population patch clamp on CHO cells stably expressing hERG
# 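Further: peak tail current of the secondary pulse compared with the same well before compound.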
# Chain of human ether-à-go-go-related gene (hERG) potassium channel (Q12809 whole entry, looked up): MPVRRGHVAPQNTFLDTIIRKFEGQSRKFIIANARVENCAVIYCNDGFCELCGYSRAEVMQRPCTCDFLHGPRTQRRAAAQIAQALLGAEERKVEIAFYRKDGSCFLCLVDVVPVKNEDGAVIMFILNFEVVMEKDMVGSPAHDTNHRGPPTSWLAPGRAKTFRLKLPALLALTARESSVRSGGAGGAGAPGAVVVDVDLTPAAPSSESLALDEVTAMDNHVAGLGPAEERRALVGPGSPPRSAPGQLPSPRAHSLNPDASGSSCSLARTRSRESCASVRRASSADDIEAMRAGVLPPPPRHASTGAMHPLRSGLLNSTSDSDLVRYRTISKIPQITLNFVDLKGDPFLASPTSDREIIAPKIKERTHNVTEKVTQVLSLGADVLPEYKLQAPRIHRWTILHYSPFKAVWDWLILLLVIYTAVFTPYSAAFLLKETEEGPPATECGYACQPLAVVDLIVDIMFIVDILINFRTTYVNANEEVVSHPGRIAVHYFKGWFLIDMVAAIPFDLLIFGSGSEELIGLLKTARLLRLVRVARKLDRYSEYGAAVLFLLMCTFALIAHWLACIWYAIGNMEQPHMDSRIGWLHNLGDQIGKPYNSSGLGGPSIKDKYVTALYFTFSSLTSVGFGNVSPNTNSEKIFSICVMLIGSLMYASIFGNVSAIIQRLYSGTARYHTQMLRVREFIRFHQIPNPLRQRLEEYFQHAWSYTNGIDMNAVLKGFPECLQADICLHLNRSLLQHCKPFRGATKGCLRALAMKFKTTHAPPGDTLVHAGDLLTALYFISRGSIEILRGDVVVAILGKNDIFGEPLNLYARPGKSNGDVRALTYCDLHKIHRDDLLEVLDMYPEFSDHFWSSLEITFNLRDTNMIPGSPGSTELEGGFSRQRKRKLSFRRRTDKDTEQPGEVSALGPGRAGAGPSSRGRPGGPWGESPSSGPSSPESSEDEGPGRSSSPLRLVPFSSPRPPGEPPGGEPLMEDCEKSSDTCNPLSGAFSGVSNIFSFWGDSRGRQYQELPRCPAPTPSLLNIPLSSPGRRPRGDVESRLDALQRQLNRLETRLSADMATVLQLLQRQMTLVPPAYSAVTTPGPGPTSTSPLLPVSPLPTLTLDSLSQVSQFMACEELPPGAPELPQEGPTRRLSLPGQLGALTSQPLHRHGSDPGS
row,SMILES,"hERG current change (%, negative = inhibition) at 10uM [%]"
1,COc1ccc(C(=O)O/N=C(\N)c2ccccc2)cc1OC,8.87
2,N#CC1=C(N)NC(SCC(=O)Nc2ccccc2)=C(C#N)C12CCCCC2,-7.22
3,CCOc1cc2[nH]c(=S)n(C3CC3)c(=O)c2cc1OCC,18.3
4,C=C1CCC2[C@](C)(CO[C@@H]3O[C@H](CO)[C@@H](O)[C@H](O)[C@H]3O)CCC[C@@]2(C)[C@@H]1CCC1=CCOC1=O (some centres unmarked),17
5,CC(C)(C)C(=O)N1CCC(O)(CS(=O)(=O)c2ccc(Cl)c(Cl)c2)CC1,-5.3
6,Cc1cccc(C(=O)Nc2ccnc(-c3ccncc3)n2)c1,-30.5
7,CCC(=O)N1CCc2cc(Br)cc(S(=O)(=O)N3CCN(C(=O)c4ccco4)CC3)c21,5.06
8,COc1ccccc1CN1C(=O)CN(C2CCCCCC2)C(=O)C1c1ccc(F)cc1 (centres unmarked),-37.7
9,O=C(CCN1CCN(c2ccccc2)CC1)N/N=C/c1ccccc1OC(F)F,-30.9
10,Fc1ccc(NC(=S)NCCc2ccccn2)cc1,7.88
11,COc1cccc(C2CN(c3ccc(F)cc3F)N=C2c2cccs2)c1OC (centres unmarked),21.5
12,COc1ccccc1C(CNC(=O)c1cccc(S(=O)(=O)Nc2ccc(F)cc2)c1)N(C)C (centres unmarked),-46.2
13,Cc1cc(C)cc(NC(=O)NCc2c(-c3ccccc3)noc2C)c1,16
14,COc1cc(NC(=O)c2ccc([N+](=O)[O-])cc2)ccc1NC(=O)C(C)C,3.58
15,CCc1ccc(NC(=O)c2cc(C)no2)cc1,-22.5
16,CCOc1ccc(-c2c(=O)n(OCc3ccccc3Br)c3ccccc3[n+]2[O-])c(OCC)c1,4.53
17,COc1cccc(-n2nnnc2SCC(=O)NCc2ccco2)c1,-2.06
18,CC1Cc2ccccc2N1C(=O)C12CCC(C)(C(=O)C1)C2(C)C (centres unmarked),11.1
19,Cc1cc(C(F)F)n2nc(C(=O)Nc3ccc(F)cc3F)nc2n1,-2.95
20,O=C(c1ccco1)N1CCN(c2c(-c3ccccc3)c3cc(Cl)ccc3[nH]c2=O)CC1,1.69
21,CSc1cccc(NC(=O)c2nnn(CC(=O)Nc3cc(C)cc(C)c3)c2N)c1,14.9
22,Cc1cc(C)cc(NC(=O)c2cccc(NC3=NC4CS(=O)(=O)CC4S3)c2)c1 (centres unmarked),19.6
23,COCCCn1c2nc3ccccc3nc2c2c(=O)n(CC3CCCO3)cnc21 (centres unmarked),-44.1
24,CCCc1cc(-c2[nH]ncc2-c2ccc(C(=O)OCC)o2)c(O)cc1O,1.39
25,C/C(=N\NC(=O)c1c(Cl)cnn1C)c1ccc(NC(=O)c2ccc(Br)o2)cc1,-0.731
26,CCCN1CCN(C(=O)c2ccc(CS(=O)c3ccc(Cl)cc3)o2)CC1 (centres unmarked),-5.99
27,CN1C(=O)c2ccccc2N(C)C1c1cccc(O)c1 (centres unmarked),12.9

row,SMILES,"hERG current change (%, negative = inhibition) at 10uM [%]"
1,O=C(O)c1ccc(N2C(=O)CCCC2=O)cc1,15.5
2,COc1ccc(SCCCn2c(=O)c3c(ncn3C)n(C)c2=O)cc1,-18.6
3,CCCCCCCNC1=CC(=O)CC(c2ccco2)C1 (centres unmarked),-76.9
4,Cc1ccc(C(=O)Nc2cccc(-c3cn4ccccc4n3)c2)cc1,8.43
5,O=C(c1ccc(Cn2c(=S)[nH]c3ccc(N4CCOCC4)cc3c2=O)cc1)N1CCC(N2CCCCC2)CC1,24.1
6,CC(C)c1ccc(S(=O)(=O)N2CCN(C(=O)c3cc(-c4ccccc4)n[nH]3)CC2)cc1,-8.43
7,COCCNC(=O)CN1C(=O)CN=C(c2ccccc2)c2ccccc21,-15.6
8,COc1cccc(NC(=O)N(CCCN2CCOCC2)C(C)c2cc3cccc(OC)c3o2)c1 (centres unmarked),-29.4
9,Cc1c(OCC(=O)NCc2cccnc2)ccc2c3c(c(=O)oc12)CCC3,9.98
10,Cc1ccccc1NC(=O)CSc1[nH]c(=O)cc(C)c1C#N,14.3
11,O=C(NCCC1=CCCCC1)C1CCN(C(=O)c2ccc(Br)cc2)CC1,-30.9
12,CCOC(=O)c1cc(C(=O)OCC)c2cccc(C)n2c1=O,-7.73
13,Nc1c(-c2ccccc2)c(CSc2nc3ccccc3[nH]2)nn1-c1ccc(C(=O)O)cc1,9.01
14,O=C(COC(=O)c1ccc(Br)cc1)NC1CCCC1,21.7
15,O=C(Nc1cc(Sc2nc3ccccc3s2)cc([N+](=O)[O-])c1)c1ccccc1F,7.08
16,C#CCOCCOCCOCCNc1nc(N2CCOCC2)nc(N2CCN(C(=O)[C@H](Cc3cc4ccccc4[nH]3)n3cc([C@@H](N)C(C)CC)nn3)CC2)n1.Cl (some centres unmarked),9.81
17,CC1CCCC(NC(=O)c2ccc(CNc3c(N4CCCC4)c(=O)c3=O)cc2)C1C (centres unmarked),12.3
18,COCCNC(=O)c1onc(CSc2ccccc2C)c1C(=O)O,5.24
19,COc1ccc(C(=O)C2CCCN(Cc3c(O)cccc3OC)C2)cc1OC (centres unmarked),-63.1
20,O=C(O)CC/C(=N\NC(=O)CNC(=O)c1cccc(Cl)c1)c1ccccc1,13.1
21,COc1ccccc1C(=O)NCCC(=O)NC1CCCC(C)C1C (centres unmarked),-27.3
22,CCN1CCN(Cc2cc(=O)oc3ccc(C)cc23)CC1,-3.04
23,COC(=O)C1=C(C(=O)OC)[C@@H]2N(C)c3ccccc3[C@@]23C[C@@H](C(=O)OC)N(C(=O)c2ccc(Br)cc2)C3=N1,-1.06
24,COc1ccc(CP(=O)(c2ccccc2)c2ccccc2)cc1,14.5
25,CC(NC(=O)c1ccco1)C(=O)N1CCN(c2cccc(Cl)c2)CC1 (centres unmarked),-7.49
26,CCC(=O)N1CCc2cc(S(=O)(=O)CCC(=O)NCc3ccccc3OC)ccc21,9.35
